Test results from the antibiotic and cytotoxicity screens of Wong et al. (2023).
This is one part of the list.

System: HepG2
Assay: cytotoxicity call (relative viability < 0.9)
Conditions: 10 µM

Row | Structure (SMILES) | cytotoxicity call
1 | Cc1ccc(OC(=O)N(C)C[C@@H]2OCc3ccccc3-c3ccccc3C(=O)N([C@@H](C)CO)C[C@@H]2C)cc1 | inactive
2 | CN(C)CC(=O)N[C@@H]1C=C[C@H](CC(=O)NCCN2CCCCC2)O[C@H]1CO | inactive
3 | C[C@@H]1CN([C@H](C)CO)C(=O)c2cc(NC(=O)CCN3CCOCC3)ccc2O[C@@H]1CN(C)Cc1ccc2c(c1)OCO2 | inactive
4 | CO[C@H]1O[C@H](CO)[C@@H](OC(=O)Nc2cccc(F)c2)[C@H](OC(=O)Nc2ccccc2-c2ccccc2)[C@@H]1OC(=O)Nc1ccccc1-c1ccccc1 | inactive
5 | CC(C)CCCC(C)N (configuration not stated) | inactive
6 | C[C@@H]1CN([C@H](C)CO)C(=O)c2cc(NS(=O)(=O)c3ccccc3)ccc2O[C@@H]1CN(C)Cc1ccncc1 | inactive
7 | NCCCS(=O)(=O)O | inactive
